For 167 variants, self-cleavage results are on record in the RNAGym collection of RNA variant scans (doi:10.7554/elife.90254).

Read counts are not given, so values of variants with three or more changes are uncertain.

The labels stand for the following.
B1: OR4K15 (parent)
chain: GUUAACGGUCAUAGGCCAUGGAAACUAGGAGCACCAUUUCGCUGCCAGUGAAGAAAUGAACAAAGAAAAUCUGGGCCAGGCAGGCAUCAAAAGAAAUAGUCUUGCGCUCAACCAGAAAGUCUGUAAUCAUUUUAAGGGUA

The variants in the data set derive from B1. Nature of the data set: self-cleavage, relative activity (ratio to wild type); higher = more cleavage; in vitro, sequencing; the parent is a self-cleaving ribozyme.
Turning to A5G U39C A96G U103C A118G, the self-cleavage came to 0.09.
Regarding G7U A51G A59G, the self-cleavage was determined as 1.01.
The same measure for A5U A36G U38C U131C: 1.78; for A5U U12A A67G: 1.35; for U9A A11G A18G A67G A89G A94G A116G: 0.25.
The same measure for G7A G28A A62U A82G A135G: 0.47; for C6U A60G A67G C77U: 1.32; for U9A A33G U100A A116G: 0.08.
For the variant G7A A23U U37A, the self-cleavage is 1.22.
The same measure for U9A G73A A92G U120C: 0.07; for A5G A78G U100C: 0.85; for A5G G21A A60G A89G: 1.28.
For U9A A18U A54U U72G, the self-cleavage is 0.28.
Regarding A5G C45A A82U U122C U130C, the self-cleavage worked out at 0.12.
On to A5U A54G U57G A67G U108C, for which the self-cleavage was determined as 0.07.
As for G7U A68G A89G A96G U120C U133C, the figure is 1.18; as for A5G A96G A129U, 0.44.
As for U9A A23G A51G A78G U122C, the figure is 0.16; as for A5G U9C U38A A52U C71A, 1.17.
A5G C101U C113U A117G U120A U130C: the self-cleavage is 0.
The same measure for G8A G15A A68G A91G A116G: 0.23.
The same measure for U9A U38C G48A A52G A118G A140G: 1.44; for A5U A82G U131C: 0.12.
C6A U37C A51G: the self-cleavage turned out to be 1.08.
As for A5G U72A A129U, the figure is 0.21.
A5G G15A G80C: the self-cleavage amounted to 0.14.
As for G8A U9C A52G A111G A116G, the self-cleavage was 0.04.
On to U9A A36G C101A, for which the self-cleavage is 0.24.
Consider A5U A59G A89U A98G U102A U103A C105A A134G, for which the self-cleavage is 0.01.
As to A5U A66G A89G A94G U130C A140G, the self-cleavage was found to be 1.57.
The same measure for U9A A11G A95G A134G: 0.89; for A5G U19A A55G A68G U139C: 0.87.
Turning to A5G U43A A82G, the self-cleavage was found to be 0.88.
As for A5G U9A A18G A90G, the figure is 1.13; as for G7A U37C A95G C113G U127C, 0; as for G7U U39C U122A, 1.12.
Consider U9A A91G A92U, for which the self-cleavage came out at 1.31.
For the variant A5U A67G A86G, the self-cleavage was determined as 1.05.
U9A G48A A52G A56G U100C: the self-cleavage was 1.94.
As for A5G G53U A98G G138A, the figure is 0.59.
Consider A5U A47G U72C A86U A94U A110G, for which the self-cleavage was found to be 0.05.
A5U U9C U72C A91G A92G: the self-cleavage was determined as 0.28.
The same measure for A5G G44A U70A A86U A89U A111G A129U: 0.03.
As for U9A A95C A111G A117G, the figure is 0.01; as for C6A G15A U102C, 1.66.
For U9A A47C U127G, the self-cleavage amounted to 1.52.
Regarding G8A U49C U102C, the self-cleavage worked out at 2.53.
On to G7A A11U G28A U122C, for which the self-cleavage stood at 1.27.
The same measure for A5G U12C A59G A69C A118G: 0.36; for A5U A59G U120A A129U: 1.09; for G7A U39C A110C: 0.28.
As for G7U A69G U102C, the figure is 2.39; as for G7A A89G A111G, 0; as for A5G G44A A89G U102A U108C A114C A116U A118G, 0.01.
For G8U A13G A52G A129G, the self-cleavage was determined as 1.2.
The same measure for A5G A82G U120C: 0.5; for A5G A78U A111G A117G: 0.01.
For U9A A18G U37C U108G, the self-cleavage was 0.01.
Take U9A A23G C107U: the self-cleavage stood at 0.1.
On to G7A U19C A51G A52U A67G A94G, for which the self-cleavage stood at 1.17.
On to A5U U12G A78U A117G U139A, for which the self-cleavage was 0.72.
The same measure for C6U U38C A47U A51G A55G U132C: 0.8; for A5G G8A A125G: 0.63.
As for A5U U37C A56G, the self-cleavage amounted to 1.65.
As for A5G U39C A55U A69G, the figure is 1.
As for G7A U38C A96G, the figure is 1.72; as for A5G U19A A30G A52U A92U U132C, 1.1; as for C6U A36U A59G A68G, 1.09.
For G8A A60G C71A, the self-cleavage came out at 0.78.
As for A5G U9G U127C, the figure is 0.66; as for G8A U72C A95G U103C U130C, 0.14; as for U9A A33G U39A C45U A51G A60G, 0.84.
Regarding A5G C6U A64G A82G A91G, the self-cleavage was 0.13.
In the case of G8A A55G A89G, the self-cleavage came out at 1.19.
The same measure for A5U U39A G73A: 0.16; for A5U U38C A90U: 1.13.
As for A5U U19C U103C A116G, the figure is 0.71; as for G7A A11U A22U A82G A90G, 0.43; as for A5G A82G A92G U139C, 0.73.
For the variant A5U U39C U133C, the self-cleavage came to 1.86.
Regarding G8A U9C A59G U103C, the self-cleavage was 0.9.
The same measure for A5U U102G A126G: 0.35.
As for U9A A22C A52G A59G U122C, the figure is 0.03; as for A5G G15A G41C A60G U72C A118G, 0.19; as for A5G U43C A116G, 1.34.
As for A5G U38A G73A, the self-cleavage was 0.32.
As for A5G A96U G99A, the figure is 1.16; as for G8A U19C U70C G115U U130C, 0.03; as for A5G A86G A111C, 0.06.
The same measure for G7U U37C A67G A96G U97C A126G: 0.59.
The same measure for A5U A11U A13G A110G: 0.14.
For the variant A5G U72A A125U, the self-cleavage amounted to 0.53.
The same measure for U9A A55G A67G G74A A92G G123U A126G A140G: 0.1; for A5U A62G A90G U120C: 0.65.
The same measure for U9A U12G A129G: 0.15; for A5G U9C A96G U130C: 0.67; for A5G U97A A114G: 0.19.
Turning to A5U A23G A95G U122G, the self-cleavage was 1.32.
The same measure for G7A U39C A66U A78C U108C: 0.02; for C6U A135G A140G: 1.77; for C6U A56G A98G: 0.26.
The same measure for A5U A60G U130C: 0.13; for C6U A52G U103C: 0.76.
Take G8A A116G U120C: the self-cleavage was 0.49.
The same measure for U9A A63G A110C U124A: 0.12; for A5U U43C A52C: 0.7; for A5U A36G A126G: 1.09.
Regarding G8A A86G A110C A129G, the self-cleavage was found to be 0.16.
As for G8A A30G C71U U131C, the figure is 0.46.
In the case of A5G A94G A95U A111G, the self-cleavage is 0.06.
In the case of G7A A56G G83A A110G, the self-cleavage was 0.06.
As for U9A C10A A22G, the figure is 1.56; as for A5U A54G C88A U132C, 1.25.
With A5U U9C U57C U87A A140C, the self-cleavage worked out at 1.09.
With A5U A68G A96U U108A A135G, the self-cleavage is 0.01.
As for C6A U37C A89G, the figure is 0.68; as for A5G A78U U87C, 0.44; as for A5G U19C A86G U87C, 1.02.
As for A5G U12A A51U A59G A114G, the figure is 0.25; as for A5G U37C A135G, 0.73; as for A5G U37C A135U, 0.83.
The same measure for A5U C61A G79U A116G A117G: 0.08; for A5G C6U A47G A60G A66G: 1.02.
Take A5G A118G U124C: the self-cleavage stood at 0.69.
For A5G C32G A33G A86G A92G A125G, the self-cleavage stood at 0.81.
On to G7A G74A A118U, for which the self-cleavage came to 0.11.
Regarding A5G A91G U120C, the self-cleavage was 0.57.
For G7A U9A A82G C85U C109U, the self-cleavage was determined as 0.2.
As to A5U A30G A36U G44A, the self-cleavage turned out to be 1.02.
With G8A G28A A82U, the self-cleavage worked out at 0.23.
U9A A11C U131A: the self-cleavage is 1.49.
Take C6A A30U A62G A64G U120C: the self-cleavage came out at 1.42.
For C6A A13U A59G U127C, the self-cleavage came out at 1.21.
For the variant G7A A90U U130C, the self-cleavage was determined as 1.23.
As to U9A A59G A69G, the self-cleavage was 0.24.
As for A5U U9C A51G A89G U122C, the figure is 1.42; as for G8U U9C U19C, 1.85.
As to G8A A82G A90G U102C U130C, the self-cleavage amounted to 0.69.
The same measure for A5G U37C A54G A67G A125G: 0.69; for G8A U43C A114C: 0.02; for U9A G31A A54G A67G: 1.26.
As for A5G U26C U38C A111U U132C, the figure is 0.07.
The same measure for G7A A33G G73A A96G: 0.1.
With A5G G7U A78G A89G, the self-cleavage stood at 0.21.
Take C6U A59G A117G: the self-cleavage came out at 1.41.
As for A5G G106U U120C, the self-cleavage stood at 0.02.
On to U9A C17U U100C, for which the self-cleavage was determined as 1.48.
With A5U U19C U57C U132C, the self-cleavage was 0.47.
Regarding C6U A33G U124A, the self-cleavage came out at 0.82.
Consider G8A A82G A114G A125G A129G, for which the self-cleavage came out at 0.01.
For the variant A5G G79U A94G U102C, the self-cleavage came out at 0.22.
On to G7A A59G A89G, for which the self-cleavage was found to be 1.17.
A5G U39C A59G: the self-cleavage stood at 0.54.
With G7U A56G U72C, the self-cleavage is 0.58.
On to A5G A78U U122C, for which the self-cleavage stood at 0.33.
The same measure for A5G U9C A111G: 0.14; for G7A U39G U49A U57C: 0.8; for G8A A62U A98G: 1.26.
A5G A86G A114G: the self-cleavage was 0.22.
The same measure for A5G C10U U100C U108C U124C: 0.
As for A5G U57C A118G A135G, the figure is 0.77.
The same measure for A5G A78U C105A: 0.03; for A5G U26C A95G: 2.22; for A5U A59G A82U: 0.65.
In the case of A5G A92G A96G, the self-cleavage was 1.33.
As for C6U U57C A63G A134G, the figure is 1.27.
Regarding G7U U37C A56G, the self-cleavage came out at 1.49.
